Screen size: about 48,000 compounds; about 450 (0.94%) were called active. Not shown: some 19% with an inconclusive outcome. Calls come from the whole dose curve; as a rule, active = well fitted inhibition curve with a large enough effect; inconclusive = small, poorly fitted or top-dose-only effect; inactive = no such curve, though single readings can be large or run the other way. Some of the results follow.
Assay: Primary qHTS for Identification of Small Molecule Inhibitors of Huntingtin Promoter Activity; note: nearly all actives have a fitted effect of over 50% in size
Conditions: HEK293 HTT promoter firefly luciferase reporter (activity 0% = vehicle and -100% = no light), 24 h; series mostly up to 57.5 µM; activity change, negative = inhibition: at the top concentration
Outline: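 Luminescence was read after Dual-Glo reagent and a 10 min room-temperature incubation. Values were normalized to vehicle (0% activity) and zero RLU (-100% activity). Reporter HEK293 cells had been exposed to compounds (up to 57.5 uM final) for 24 h.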

Activity change, negative = inhibition, inactive:
Cc1nc(-c2ccccc2)sc1-c1ccc(SCC(=O)Nc2ccc(F)cc2F)nn1 -1.2%, Cc1oc2ncnc(N3CCCCC3)c2c1C(=O)NCC1CCN(Cc2ccc(F)cc2)CC1 -9.46%, CCC(CC)c1nn2c(=O)cc(COc3ccc(NC(=O)c4ccc(Cl)cc4)cc3)nc2s1 -5.62%, COc1ccc(-n2ncc(C(=O)N3CCN(c4ccccn4)CC3)c2C2CCN(C(=O)OC(C)(C)C)CC2)cc1 -0.427%, CC(Sc1oc(-c2ccco2)nc1S(=O)(=O)c1ccc(Br)cc1)c1ccccc1 (stereo not given) -24.5%, COCCNC(=O)c1c(NC(=O)Cc2coc3cc(C)ccc23)sc2c1CCCC2 -31.7%, CCC(C)NC(=O)c1ccc2c(c1)N(Cc1cccc(Cl)c1)C(=O)c1ccccc1S2=O (stereo not given) -21.2%, Nc1nc(-c2ccccc2)c(Br)c(=O)[nH]1 11.3%, CCOC(=O)c1cn(CC(=O)Nc2cccc(Cl)c2C)nn1 -18.6%, Cc1nnc(N2CCN(c3ccccc3F)CC2)c2c1nnn2Cc1ccc(F)cc1 -26.5%, CCOc1ccccc1NC(=O)C(NS(=O)(=O)c1cccc2nsnc12)c1ccccc1 (stereo not given) -4.25%, CCc1cccc(CC)c1NC(=O)c1cc(S(=O)(=O)N2CCc3ccccc32)cn1C -22.2%, Cc1ccc(CN2CCCn3nc(C(=O)NCCN(C)C)cc3C2=O)cc1 -12.1%, CCOC(=O)c1c(C)[nH]c(C)c1S(=O)(=O)N1CCC(C(=O)NCc2ccccc2)CC1 -8.37%, Cc1ccc(C)c(OCCSc2nc3ccccc3n2CC(=O)N2CCOCC2)c1 -12%, COc1ccc(NC(=O)Cc2coc3cc(C)cc(C)c23)c(OC)c1 -6.3%, COc1ccc2c(c1)c1c(c(=O)n(Cc3ccccc3)c(=O)n1Cc1cc(C)ccc1C)n2C -10%, Cc1nn2c(=O)cc(COC(=O)c3ccccc3NC(=O)c3ccccc3C)nc2s1 38.2%, CC(C)C[C@H](NC(=O)[C@H](CCc1ccccc1)NC(=O)CN1CCOCC1)C(=O)N[C@@H](Cc1ccccc1)C(=O)N[C@@H](CC(C)C)C(=O)[C@@]1(C)CO1 -50%, Cc1ccc(S(=O)(=O)N2CCCC(c3nc4c(nnn4Cc4ccc(OC(F)(F)F)cc4)c(=O)[nH]3)C2)cc1 (stereo not given) -10.1%, CCOC(=O)c1ccc2c(c1)N(Cc1cccc([N+](=O)[O-])c1)C(=O)c1ccccc1S2 -18.6%, CC(=O)Cn1nnc2sc(-c3ccccc3)cc2c1=O 56.6%, COc1ccc(-n2c(C)c([N+](=O)[O-])c3ccc(O)cc32)cc1 -5.1%, COCCNC(=O)c1cc2n(n1)CCCN(Cc1ccc(C)cc1)C2=O -13.2%, CN(Cc1ccccc1)C(=O)c1cc2c(=O)n(C)c3ccccc3c2s1 9.21%, CCOC(=O)N1CCc2c(sc3c2c(=O)n(Cc2ccccc2)c(=O)n3Cc2c(F)cccc2Cl)C1 -21.7%, CSc1cccc(N2C(=O)N(Cc3ccc([N+](=O)[O-])cc3)c3ccccc3S2(=O)=O)c1 -7.45%, O=C1CC(c2nc3ccccc3n2Cc2c(F)cccc2Cl)CN1c1cccc(C(F)(F)F)c1 (stereo not given) -15.4%, COc1ccc(CC(=O)Nc2c(C(=O)Nc3ccccc3F)oc3ccccc23)cc1 -4.35%, COc1ccc(NC(=O)CC2C(=O)N(c3ccc(C)cc3)C(=O)N2CCc2ccccc2)cc1 (stereo not given) -33.7%, Brc1ccc(-c2cc3c(N4CCN(c5ccccc5)CC4)nccn3n2)cc1 -7.99%, O=C(O)c1[nH]n(-c2ccc(S(=O)(=O)O)cc2)c(=O)c1N=Nc1ccc(S(=O)(=O)O)cc1 2.19%, Cc1ccccc1NC(=O)c1sc2nc(-c3ccncc3)ccc2c1N -28.1%, CCOC(=O)c1ccc(N2C(=O)c3n[nH]c(-c4cccs4)c3C2c2ccc(C)cc2)cc1 (stereo not given) 0.594%, CCCN(CCC)CCCNC(=O)Cn1ncc2c3ccccc3n(Cc3ccc(F)cc3)c2c1=O -15.3%, Cc1nc(C)c(-c2ccc(SCC(=O)Nc3ccccc3F)nn2)s1 18.1%, COCCCNC(=O)CCCn1c(=O)c2cccn2c2cccnc21 -7.76%, COc1cccc(CNC(=O)CCNS(=O)(=O)c2cccc3nsnc23)c1 -9.97%, Cc1cc2ccccc2n1-c1ccc(C(=O)N2CCCCC2)s1 -17%, CCn1cc(S(=O)(=O)c2ccccc2)c(=O)c2cc(C)ccc21 -22.5%, CCOC(=O)c1[nH]c2ccccc2c1NC(=O)c1ccc(OC(C)C)cc1 14.9%, COc1cc(OC)cc(C(=O)Nc2ccc(S(=O)(=O)Nc3cc(C)nc(C)n3)cc2)c1 16.6%, COc1ccc(CCN2CC(C(=O)NCCc3ccc(C)cc3)CC2=O)cc1OC (stereo not given) -28.3%, CCCCn1c(COc2cccc(OC)c2)nc2ccccc21 -3.15%, NC(=O)N/N=C/c1ccc([N+](=O)[O-])o1, CC(C)NC(=O)c1ccc(-n2c(-c3ccccc3)cc3c2CCCCC3)cc1 12.9%, COc1ccc(Cl)cc1NC(=O)Cn1cc(C(=O)c2ccncc2)c(=O)c2cc(C)ccc21 -19.9%, Nc1ncc(S(=O)(=O)NCc2ccc(Cl)cc2)cn1 -3.75%, CCC(Sc1nc2cc(OC)c(OC)cc2c(=O)n1CCc1ccc(Cl)cc1)C(=O)NCCOC (stereo not given) -4.65%, Cc1cc(C)cc(OCC(=O)Nc2ccc(-c3nc4ccccc4s3)cc2)c1 40.4%, Cn1nnc2c(N3CCN(c4ccccc4F)CC3)ncnc21 5.55%, Cc1ccccc1C(=O)Nc1cccc(C(=O)OCc2cc(=O)n3c4c(sc3n2)CCCC4)c1 -18.6%, Cc1ccc(-n2c(SCC(=O)NCc3ccc(F)cc3)nc3c([nH]c4ccccc43)c2=O)cc1 -34.2%, Cc1ccc2oc3c(c(=O)c2c1)C(c1ccccc1F)N(CCCN1CCOCC1)C3=O (stereo not given) 13%, COc1ccc(N(CC(=O)NCCc2ccccc2)S(=O)(=O)c2ccccc2)c(OC)c1 -22.1%, Cc1ccc(Nc2c(-c3ccncc3)nc3ccc(C)cn23)cc1 -9.39%, CCOc1ccc(OCC)c(S(=O)(=O)N2CCN(c3cccc(C)c3C)CC2)c1 -2.22%, CCOC(=O)C1CCN(c2ncnc3c2nnn3C)CC1 -7.65%, Cc1ccc(CN(C(=O)COc2cccc([N+](=O)[O-])c2)c2ccccn2)cc1 -38.8%, Cc1cc(C)cc(N2CCn3c2nc2c3c(=O)n(Cc3ccc(Cl)cc3)c(=O)n2C)c1 -8.12%, CC(C)c1ccc(CNc2nc(-c3ccco3)nn2S(=O)(=O)c2ccc3ccccc3c2)cc1 18.1%, O=S(=O)(c1ccccc1)c1nc(-c2ccc(Cl)cc2Cl)oc1N1CCCCCC1 -18.6%, CC(=O)N[C@@H](CCC(=O)O)C(=O)O -0.213%, CN(C)CCC[C@@]1(c2ccc(F)cc2)OCc2cc(C#N)ccc21 -9.7%, COc1ccc(CNC(=O)Cn2nnc(-c3ccc(S(C)(=O)=O)cc3)n2)cc1 -7.18%, COc1cccc2c1cc1c(=O)n(CC(=O)N3CCN(c4cc(Cl)ccc4C)CC3)nc(C)n12 -7.77%, CCC1CCCCN1CC(=O)N1CCCc2c1c(=O)oc1ccc(OCc3ccccc3)cc21 (stereo not given) -38.8%, CCOc1ccc(-n2c(C)nc3cc(C(=O)NCCC4=CCCCC4)ccc32)cc1 5.3%, COc1ccc(CNC(=O)CCC(=O)N2CCSc3ccccc32)cc1 -0.797%, CCCC1OC2C[C@@H]3[C@H]4CCC5=CC(=O)C=C[C@]5(C)[C@H]4C(O)C[C@]3(C)[C@]2(C(=O)CO)O1 (stereo not given in full) -5.92%, CCOC(=O)c1ccc(NC(=O)C2=C(C)Nc3nc(SCc4ccc(Cl)cc4)nn3C2c2ccc(OC)cc2)cc1 (stereo not given) -4.13%, Cc1ccccc1NS(=O)(=O)c1ccc(Br)s1 -17.8%, COc1ccc(-c2nc3sc(CCNC(=O)c4cc(Cl)ccc4OC)c(C)n3n2)cc1 24%, CN(Cc1ccccc1)S(=O)(=O)c1ccc(F)c(C(=O)Nc2cccc(Cl)c2Cl)c1 -6.09%, Cc1ccc(C(C)(C)C)c(OCC(=O)NCCc2nc3ccccc3[nH]2)c1 4.12%, CCN(CC)c1cc2c(cc1F)c(=O)c(S(=O)(=O)c1cc(C)ccc1C)cn2Cc1ccccc1 -20.9%, CCOc1ccc(C2=NC(c3cccs3)=Nc3ccc(C(C)C)cc3N2)cc1 3.37%, CCOc1ccccc1-n1nnc(-c2nc(-c3ccccc3)no2)c1N 36.6%, Cc1c(/C=C(\C#N)C(=O)Nc2cccc(Cl)c2)c2ccccc2n1Cc1ccccc1Cl -23.3%, CCOC(=O)c1cccc(NC(=O)C2CCN(S(=O)(=O)c3ccc4c(c3)oc(=O)n4C)CC2)c1 -21.1%, COc1ccccc1N1CCN(c2ncnc3c2cnn3C)CC1 -3.67%, CCc1ccc(C(=O)COC(=O)C(Cc2c[nH]c3ccccc23)NC(=O)c2ccc(Br)cc2)cc1 (stereo not given) -3.12%, CCc1cccc(C)c1NC(=O)Cn1ccn(-c2ccc(F)cc2)c(=O)c1=O -11.7%, CCOc1ccc(C2CC(=O)c3c([nH]c(C(=O)OCc4ccccc4)c3C)C2)cc1 (stereo not given) -27.8%, COc1ccc(CCN2C(=O)c3oc4ccc(F)cc4c(=O)c3C2c2ccc(C(C)(C)C)cc2)cc1 (stereo not given) -9.6%, O=C(CSc1nc(-c2ccccc2)no1)N1CCCCC1 -2.11%, COc1ccc(C(=O)CN2C(=O)N(c3ccc(C(C)=O)cc3)S(=O)(=O)c3ccccc32)cc1 -20.7%, Cc1ccc(Cn2nnc(C(=O)Nc3ccc(F)c(F)c3)c2N)cc1 -16.6%, COc1ccc(S(=O)(=O)N2CCC(n3c(C(F)(F)F)nc4cccnc43)CC2)cc1OC -35.6%, CCOc1ccccc1-n1cc2c(c1-c1ccc(OC)cc1)c(=O)n(C)c(=O)n2C -4.18%, Cc1ccc(N(C)C(=O)C2CCN(S(=O)(=O)c3ccc4c(c3)CCCN4C(=O)C3CCC3)CC2)cc1 -4.57%, COC(=O)c1ccc(NC(=O)CN2CCN(c3ccc(Cl)cc3)CC2)cc1 -15.1%, O=C1CC(c2ccccc2)Cc2[nH]c(=O)c(C(=O)Nc3cccc(Cl)c3)cc21 (stereo not given) -5.47%, COc1ccc(NC(=O)c2cn(-c3ccccc3)nc2-c2ccc(C)cc2)cc1 5.75%, CN1CCCC(n2nc(Cc3ccc(Cl)cc3)c3ccccc3c2=O)CC1 (stereo not given)

— PubChem BioAssay AID1508623 (National Center for Advancing Translational Sciences (NCATS), 2021)
